The other results are listed elsewhere or left out.
B1: chr2:25961539:25961540:-_ENSG00000143970_ENST00000336112|hu_hu|FALSE|FALSE (ssRNA)
RNA: GGGAGUUCUACAGUCCGACGAUCCACUCCUCACCCCCAUUAUAGCAAAUCACUUCACCAGAGAGUUAUUUAUGGCUCUCUAAGGUGGAGAAAGGCAAUAAUAAACAACAGAAUGUUAACUGUCAGGUCAUUAAUAUGUAUGACCAACAGAGGAUUGAGCAUCA
B2: chr3:9412954:9412955:+_ENSG00000134077_ENST00000452837|hu_mus|hu_hu_hu_mus_False|28_58 (ssRNA)
RNA: GGGAGUUCUACAGUCCGACGAUCGGUUGAUAUCUCUUCUUUGAUGGCUGGAUUUUCAUAAUAGUCCAAGAUAUGUGAAUCUAAAGCGCUGCUGGCAUGCUUUUUCUUAACAUUUCUCUCAUCUGCUUUGUCUCCUUGUCCACACAACAGAGGAUUGAGCAUCA
B3: chr4:25749455:25749456:-_ENSG00000091490_ENST00000264868|hu_hu|hu_hu_hu_mus_False|1_98 (ssRNA)
RNA: GGGAGUUCUACAGUCCGACGAUCGCACUAUGACCUCCCCUAGAAAACACAGGGGGAAAAAAUGUAAACCAAUGUACAAUGUUAUCGCCUUCCCUGUGUGUGGAGUGUUUGUCUCAAGGCUCCUUCUAGCUGCUGGACUGCUAGCAACAGAGGAUUGAGCAUCA
B4: chr4:24557968:24557969:-_ENSG00000109606_ENST00000336812|hu_mus|FALSE|FALSE (ssRNA)
RNA: GGGAGUUCUACAGUCCGACGAUCACCCAUGAGAAUAUCUGUAGCCAAUGUUCUUUCAUGGGCCUCAUCAAGAAUUAUCACACCAUAACGCUCCAGAAGGGGAUCGUUCAUGGCUUCACGAAGUAGCAUCCCGUCAGUCAUAUACAACAGAGGAUUGAGCAUCA
B5: chr4:95690885:95690886:+_ENSMUSG00000028572_ENSMUST00000156910|mus_mus|mus_mus_mus_hu_False|8_58 (ssRNA)
RNA: GGGAGUUCUACAGUCCGACGAUCUUUAGAAAAUGUUAAAUACCAUGCUAAAAUAUUUUCAAAGGCUUAUUUUAUUUUACUAAAAGACACAGGCAAGCAGACACUACAAGAAUAUAUGAAAAUGAAACAACAGUGUAUAACUGUCAACAGAGGAUUGAGCAUCA
B6: chr11:116197844:116197845:-_ENSMUSG00000052949_ENSMUST00000100202|mus_hu|FALSE|FALSE (ssRNA)
RNA: GGGAGUUCUACAGUCCGACGAUCAGAGGGGUACACAGAUGGCACAAGCAGUAUACACAUGCACACACCAGGUGUGCAGACCAAAGCAAAGUGAGCGACCAGCGUGCUAAACUCCAGGUGGGCAGGACCCCAACUCCCAGGUGACAACAGAGGAUUGAGCAUCA
B7: 232645778_232645898_181_3pUTR_ENSG00000156973_ENST00000287600|human|control|control (ssRNA)
RNA: GGGAGUUCUACAGUCCGACGAUCUGAAGCCCCUCAGGAUCUCCCUGGCCCGCUCGUCCUUGGCUGACAUGAUGCGGCGGUCGCCGCCCGCGGCUUUCUCACUCUGGUCGGCGGAGCCUCGCAGACGGUGCCCAGGAGCCGAGGCAACAGAGGAUUGAGCAUCA
B8: chrX:70775091:70775092:+_ENSG00000147162_ENST00000373719|hu_mus|motif|central (ssRNA)
RNA: GGGAGUUCUACAGUCCGACGAUCAUCGGGGAAAUGGGGUUGCAGUUCGAUAGCUCUCCUGUAGGUAUCAAUGGCCAGGUCGGUUAGGCCUUGCUCGUAGUACACACAAGCCAGGUUGCCGUGCACCACCGCAUGAUUUGGGCUCAACAGAGGAUUGAGCAUCA
B9: chr7:54168817:54168818:-_ENSMUSG00000014402_ENSMUST00000014546|mus_mus|FALSE|FALSE (ssRNA)
RNA: GGGAGUUCUACAGUCCGACGAUCGUUUGAGAUCUUUGUACAUAGCGAUGACAUUGACAGUUUGACGGACGGUUAGAUCUCUAUAUUUGUACUUGGACAUCAUCUUCUUCAGCUGACUCUCGGACACCGCCAUGGCGCGCUCCUCAACAGAGGAUUGAGCAUCA
B10: chrX:45232703:45232704:-_ENSMUSG00000031099_ENSMUST00000088973|mus_mus|FALSE|FALSE (ssRNA)
RNA: GGGAGUUCUACAGUCCGACGAUCAGAUGGAACCCAUCGUUUAAAUUCAUUCAUCCAGUUAUGUAAAGUAGACUUGGGAACUAAAACCAUGUGGGGUCCAGGAAUGUUUCUGUAGUGCUUCAGGUAACCAAGCAAGGCAAUGGUCAACAGAGGAUUGAGCAUCA
B11: chr15:98780418:98780419:-_ENSMUSG00000072235_ENSMUST00000097014|mus_hu|FALSE|FALSE (ssRNA)
RNA: GGGAGUUCUACAGUCCGACGAUCAGCAUACACUGCUACAUACAAAUUAACUGAUCAGACCACAACUUUUCAAUGUUUAAAACAGAAUAAGCUUCCCUGUAAAAGCAGCACCUUUGUGACGUUUUAACUUUAGUAUUCCUCUCCCAACAGAGGAUUGAGCAUCA
B12: chr14:22594296:22594297:+_ENSMUSG00000021770_ENSMUST00000119430|mus_mus|FALSE|FALSE (ssRNA)
RNA: GGGAGUUCUACAGUCCGACGAUCAUCAUAUUCAGUCAGCGUGAGCAAUGUGAUUCCAUCAAGGCGGUGCUUGUUGCAUAAAAUGUCCACAUACUCAAAGAAACCUUCGUCCUUCAGCCACACAGCCACAUGCUUGGUAGUCCACAACAGAGGAUUGAGCAUCA
B13: chr9:58722913:58722914:-_ENSMUSG00000032340_ENSMUST00000068664|mus_hu|FALSE|FALSE (ssRNA)
RNA: GGGAGUUCUACAGUCCGACGAUCGGCGACAGACACAGGUGUUCCAAAUCCCCCCGAGGAAGCUGCUGAGCGGCAGCUCAACCAGGACACUACAGGACACACAAUGGUUUAGUUUCGAAAAUCACAGGAAAAUGUAAGAAAAUGCAACAGAGGAUUGAGCAUCA
B14: chr3:179052105:179052106:+_ENSG00000121864_ENST00000484866|hu_mus|FALSE|FALSE (ssRNA)
RNA: GGGAGUUCUACAGUCCGACGAUCCCCAAACCUCAUCAAGCACUCACUACAUUUAUGAGGCAAGUCAGCUGAAUGCUUGAAAUCUAGAUGAAUUUUAAGAUCGUCAAUUUGUCCUGUUGAAUAUUCACAAUAUUGGCAUAAGUACAACAGAGGAUUGAGCAUCA
B15: 31015960_31016413_2293_3pUTR_ENSMUSG00000027660_ENSMUST00000118470|mouse|control|control (ssRNA)
RNA: GGGAGUUCUACAGUCCGACGAUCUAGAAUUCCUCCAUCCUCUGAGCAUGCUCACUCUGUAACGACUCAAGCUCUUUCUGUAGAUUCUGCUGCUCUUCAGUGAGCUCCUUCAUCGCCUUUGAACUGCUCAGCAUCUCCACCUCCCAACAGAGGAUUGAGCAUCA
B16: chr13:96295345:96295346:-_ENSG00000134874_ENST00000376829|hu_hu|motif|central (ssRNA)
RNA: GGGAGUUCUACAGUCCGACGAUCGCACCCAGAACCCUUACAAACUUGGGUCGGGGCUGCAUUCUGGGCUUUGGAGAGGCGGAAAUAUUUCUAGCAGCGACUUGUAGACCUCAGGCCUCUCAUUUCUAUGGGUCUUCUGGGGGCCAACAGAGGAUUGAGCAUCA
B17: 61707665_61713045_2756_CDS_ENSG00000171316_ENST00000423902|human|control|control (ssRNA)
RNA: GGGAGUUCUACAGUCCGACGAUCCCCAGCAGCAUCUGCAUCAUCUGCCUCCUCAUCAGAAAUCUUGAACUCCAGGUCUUCAGUGUAGCGCUUUCUCUUCACCUGUCUGCUGGACCGUCUCUUCUGAACACCUGGGUCCUCAUCCAACAGAGGAUUGAGCAUCA
B18: 142892148_142892268_3018_CDS_ENSMUSG00000031004_ENSMUST00000033310|mouse|control|control (ssRNA)
RNA: GGGAGUUCUACAGUCCGACGAUCCACUUUCUUUUCUGUAAUUCCUUGAUCCUCACUUAUUGAUGUGUUUUGCAUGUGCAUGGAUUCCUCUAGGUUUUGUAUGGUUCCUUGUCCUUGACUAAGUAGUUCCUCAGCAUAGUCUGCCAACAGAGGAUUGAGCAUCA
B19: 146273032_146273152_1029_CDS_ENSMUSG00000037110_ENSMUST00000109986|mouse|control|control (ssRNA)
RNA: GGGAGUUCUACAGUCCGACGAUCAUCAACUCCAUUUUUAGUGUUUUGUGUUGCAGUUAGAUACUUUUUUUCCAAAAAGAAAGUUACAAUCCAUUUAAUGAAAACAACACGAGCUGCCAUGUAUGGAAUUUUUGUACUGUAAAUCAACAGAGGAUUGAGCAUCA
B20: chr12:48362563:48362564:+_ENSG00000134291_ENST00000256686|hu_hu|hu_hu_hu_mus_False|1_108 (ssRNA)
RNA: GGGAGUUCUACAGUCCGACGAUCUCCGAAGGGUGAAUCGAUAGACCCUUGCGGGGGAAACUGUAAUCACUUUGUAUGGGGAAGGAAAAGAAACGCCAAAAACUUUCCAAAAAGCGGGGGUGGGGUGAGGCGGGAGGUUGGGAACAACAGAGGAUUGAGCAUCA
B21: chr7:102952668:102952669:+_ENSG00000105819_ENST00000453466|hu_mus|FALSE|FALSE (ssRNA)
RNA: GGGAGUUCUACAGUCCGACGAUCCUGGUUAAAAUCUGGUAGUCGCUCAAUAGGACCCAGAGCAGCAAUAGCUGGGCUUUUGUCAUGAAUGUACUUGGUGCACACUCGUCGAACCGUCUCCGCAUCCACAGCAUCAAUUCUUGCCAACAGAGGAUUGAGCAUCA
B22: chr13:111857651:111857652:+_ENSG00000102606_ENST00000375736|hu_mus|FALSE|FALSE (ssRNA)
RNA: GGGAGUUCUACAGUCCGACGAUCAGCACACACAGAAUCACUUCCUAGUCCAAUGUCUGCUGUCACUUUAUUUAGUGUCACCAAGGAGCUGAGGACCUUGUUAAAGUUCUGCCCCUGAUACAAAUCAUUUGCAUCAAAAGUCUCCAACAGAGGAUUGAGCAUCA

biological target: T1, UNK ZnF1-3 (human, UniProt Q9C0B0 31-174); test: nsRBNS (natural sequence RNA bind-n-seq); RBNS binding buffer (assumed for nsRBNS): 25 mM Tris pH 7.5, 150 mM KCl, 3 mM MgCl2, 0.01% Triton X-100, 500 ug/ml BSA, 20 U/ml SUPERase-In, 4 C; UNK is unkempt and MSI1 is Musashi-1; names of the RNAs are library labels; protein concentration not given here; high values mean tight binding
T1 sequence: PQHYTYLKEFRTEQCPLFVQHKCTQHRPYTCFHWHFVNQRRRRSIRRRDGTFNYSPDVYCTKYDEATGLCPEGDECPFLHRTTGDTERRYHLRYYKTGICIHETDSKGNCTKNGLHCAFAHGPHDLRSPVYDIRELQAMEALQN

Binder | binding signal [enrichment R]
B1 | 1.83
B2 | 0.309
B3 | 1.01
B4 | 0.416
B5 | 1.89
B6 | 1.54
B7 | 0.48
B8 | 0.39
B9 | 0.673
B10 | 1.35
B11 | 1.94
B12 | 1.1
B13 | 1.75
B14 | 0.952
B15 | 0.514
B16 | 1.02
B17 | 0.772
B18 | 0.367
B19 | 0.87
B20 | 2.26
B21 | 0.942
B22 | 1.52

— paper PMC12136788
